# Test results: the supplement of paper PMC11417369
# This is one part of the list.
# Test system: PfSIP2 AP2 domain 1 (GST-tagged)
# Test: gcPBM binding intensity (ln(normalized median fluorescence intensity)); higher = stronger DNA binding
# Method in brief: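 The binding buffer was 1× PBS containing 1% milk, 0.2 mg/ml BSA, 0.5% salmon testes DNA and 0.03% Triton X-100. In it, GST-tagged P. falciparum DNA-binding domains expressed in E. coli were applied for 1 h to an Agilent 4 × 180k array of primer-extended double-stranded 36-bp intergenic genomic probes plus negative controls. Binding intensity, read with Alexa488 anti-GST antibody and a 488 nm scan, is the highest Masliner-normalised natural-log median intensity across replicate spots of either probe orientation.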
row,Sequence,gcPBM binding intensity (ln)
1,TTTTTTATTTTTTGTTATATTTATAATAATTTATGA [XGTACX_negctrl_site260],6.68
2,ATATATATATATGTAGTGCATTTTATATATAATATT,9.01
3,TACTTTACACATATTTTTAATTATTCTGAATTCAAA [GTGCAC_negctrl_site253],7.06
4,TACAGATATTTTATTTCACACATTTTATCATTTTCT [CACACA_site5701],6.96
5,TTCAAAAAAGGAAAGTTGCACTTGATACGCTTATTA [GTGCAC_site9411],7.83
6,AAGAAATAAATACATACACACATATATATATATATA [CACACA_site3362],9.51
7,ATAAGTAATATAATATGTACATATATATATATATAT [XGTACX_site3818],9.25
8,TATATATTGTTATAATGTACATAATATTTTATCTGC [XGTACX_site4983],7.08
9,ATGCAAAATAAAGAAGCACACAAAAATGAAATATAT [CACACA_site9217],7.2
10,AGAATAATTTTATCGGTACACACTGTATGCATAATA [CACACA_site374],7.08
11,GGAAATTTCAATATTTGTACATATATATATATATAT [XGTACX_site3222],9.79
12,AACAAAAGTAATTAAAAACAATACAAACATATGTTT [XGTACX_negctrl_site220],6.76
13,TGGATAAAATAAAAATGTACTTAACATTTATATTTT [XGTACX_site712],6.83
14,AAATAATATAAACATACACACACACCGATATATATA [CACACA_site8945],7.42
15,TTTCTAATTTATATCACACACATATAAATATAGTAA [CACACA_site6210],7.19
16,ATCATTCAAAAATGCTGTACTAGGGGAAAACGTGTT [XGTACX_site7168],6.89
17,ATATATAGGTTCCCTTTTCTTTTTTTTTTTTTTTTT [CACACA_negctrl_site1159],7.71
18,ATGTATGAAAAAATGTGTACATAATTTTTTTTTTTT [XGTACX_site5444],7.5
19,TTAAATGTTGGTTGTAGTACTCCATATGTTGTTTTA [XGTACX_site5312],7.04

row,Sequence,gcPBM binding intensity (ln)
1,CTTATGTGCATACCTACACACTTACATATATATATA [CACACA_site8973],9.51
2,TTTGGAATATTAATTGTGCACTTAAAAAGTTAATTA,10
3,TATATATATATAAGATGTACCCTTTGAAATAATAAT [XGTACX_site7215],8.92
4,TGATACTGCAAAAAATATAAAAAAATAATAAAATAA [CACACA_negctrl_site791],6.8
5,AACATAAAACGTAATATATTACAAATATAAACAATC [CACACA_negctrl_site1675],7.29
6,TTACCATTTGAAAATTCACACACTTTATTTTGTTAT [CACACA_site3799],6.93
7,ATATATATATATATATGTACATATTTTATAACTGTA [XGTACX_site5395],9.2
8,ATTTATACATATAAACGTACATACATATATAATATT [XGTACX_site2969],7.2
9,TGAACAAAAAAAAATTGTACTTTTTTTTTAATATTT [XGTACX_site7172],7.15
10,TTTCTTCGAAATAGAACACTTGTGCAAAATAAGCAA [XGTACX_negctrl_site361],7.26
11,AAAAAAAACAATCTCATACACACTAGGGATTAATTA [CACACA_site1776],6.63
12,ATATATACTATAATAGTGCATTAAAAAAGTAAAAAT,8.63
13,TAAAGAGAAATATGTACATGCGAAAATGCCTTAAAT [TGCATGCA_site1050],7.2
14,AGACAATAATATAATCGTACAATAAATAAAATAAAA [XGTACX_site5231],6.9
15,AAATATAATATACAAAGTACTTTTTCATCTTATATA [XGTACX_site8771],6.84
16,AAAATAATCTTTTGATTGCACTGTTACATTTTTTCT [GTGCAC_site9563],7.67
17,TTTATGTATTTTTATGCACACATGCGTGGCTTATAT [CACACA_site4374],7.17
18,TACGGACATACTAACGGACACACGTAAGAAAAAAAA [CACACA_site602],7.14
19,TTTATAATAAAATTTTTACACACTTTAAAAAAAAAA [CACACA_site8070],6.99

row,Sequence,gcPBM binding intensity (ln)
1,TTTTTTTCAATATTTGCACACGATTATAATATTTAA [CACACA_site2237],7.24
2,AATATTCGTAATTGATGTACTTGTAATTCATACATT [XGTACX_site8314],6.78
3,AATAAATATCTGTACACACACAAATAAATACATATC [CACACA_site5108],7.19
4,TATAATAAAAATAATACACACATATATAGCAATCGT [CACACA_site3241],7.27
5,CAGAATAATTTTATCGGTACACACTGTATGCATAAT [XGTACX_site736],7.15
6,TTCTGTATAATATAAAAACAAAAATTAAATTAAAAC [CACACA_negctrl_site81],7.09
7,CATAAAATATAAAACACACACACATATATATATATA [CACACA_site223],9.29
8,AAATTTTTTATTCTAATTAATATTTACACAATATAT [TGCATGCA_negctrl_site376],6.76
9,TTCCATGTAGGACATGCATGCAGTTTTTAAAATATT [TGCATGCA_site481],7.03
10,TATTATATAAATATACGTACATATACTAACCTTTTA [XGTACX_site6317],7.23
11,TATGACATATCCTGTAGTACAACGTATATATAAGAT [XGTACX_site1327],7.11
12,ATATATAACGTGCACACACACATTTACGTATGAATA [CACACA_site6948],10.4
13,AATAAAAATAATGAATGTACATATATATATACAATA [XGTACX_site3342],6.86
14,TTTTATTAAAACCACGCATGCAGAGGAAACGGTGAG [TGCATGCA_site1029],7.56
15,ATATATAATTTTTGCTGTACACAAAATATTAATTTA [XGTACX_site2057],7.3
16,ATTATATCATCTAAAACATGCACACATATGTACTCT [TGCATGCA_site949],7.12
17,GTTGAGAAAATATGTGCATGTCAGGTTAAATTTTTA [TGCATGCA_site744],7.7
18,ATATATATATATATATGTACATAATATATGTCCTAT [XGTACX_site5087],9.03
19,GTAAGCATAAATATATGTACATACATATACAGATAT [XGTACX_site3361],6.97
